# Results published in publication PMC7819943, “Rice protein-binding microarrays: a tool to detect cis-acting elements near promoter regions in rice”.
# The list shows a part of the results.
# Target: T1, OsWOX13 (Oryza sativa, UniProt Q5QMM3 1-267)
# T1 sequence: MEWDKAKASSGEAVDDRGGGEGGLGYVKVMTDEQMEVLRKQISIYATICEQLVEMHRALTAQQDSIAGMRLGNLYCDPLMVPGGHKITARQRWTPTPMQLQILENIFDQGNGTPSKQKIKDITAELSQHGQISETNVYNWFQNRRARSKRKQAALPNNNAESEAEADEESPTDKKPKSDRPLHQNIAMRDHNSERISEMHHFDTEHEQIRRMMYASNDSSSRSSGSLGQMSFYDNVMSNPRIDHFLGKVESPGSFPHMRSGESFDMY
# Test: protein-binding microarray (RPBM); PBS, 2% BSA, 51.3 ng/ul salmon testes DNA, 50 uM zinc acetate, 200 nM TF, 25 C, 1 h; high values mean tight binding
# Conditions: protein: recombinant; tags: N-terminal polyhistidine and DsRed monomer fusion (pET32a); label: CyDye5-dUTP incorporated in the synthesized complementary strand; 3' TTTTT single-stranded linker to array surface; dsDNA, one strand shown
# How it was run: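 Transcription factors were made in E. coli BL21-CodonPlus as N-terminal fusions to a polyhistidine tag and DsRed, then purified on Ni–NTA. After primer extension with Cy5-dUTP and blocking with 2% BSA, a custom Agilent array was exposed for 1 h at 25 °C to 200 nM protein in PBS, 2% BSA, salmon testes DNA and 50 µM zinc acetate. Washed arrays were scanned on an Axon 4000B, and the binding signal is per-feature fluorescence intensity in arbitrary units.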
row,Sequence,binding signal
1,ATGATAGGATAATCTGGGTAACACATGAAACTTAACTTAGCGGAGTCACCTAGTGCAG,10100 fluorescence intensity (a.u.)
2,CCCGTCATGGTTGATTGTTTTAGGGACGTTACAGATATTTCGGAGTCACCTAGTGCAG,6430 fluorescence intensity (a.u.)
3,CAGATTAAAATTTCTGCTCAAGCTAGCCATCGATCATCTGCGGAGTCACCTAGTGCAG,3930 fluorescence intensity (a.u.)
4,CAGCCAAATTGGACTGGATCAAACCAAGACATAAACTGAACGGAGTCACCTAGTGCAG,7250 fluorescence intensity (a.u.)
5,ATAAAATTAATTTAGTGTTGTTTCTATAAATTTAGTCAAACGGAGTCACCTAGTGCAG,30700 fluorescence intensity (a.u.)
6,CGAATTTGTCCAAATTACAATCAAATCTTACTGTTTTAAACGGAGTCACCTAGTGCAG,3820 fluorescence intensity (a.u.)
7,TACATACATGTTACATAAATTGAATAAATAATTACATAGGCGGAGTCACCTAGTGCAG,6600 fluorescence intensity (a.u.)
8,AGAAGTATTTATAATGGTGATTGGTAGATCTTATGATGTTCGGAGTCACCTAGTGCAG,18200 fluorescence intensity (a.u.)
9,GATGAGGTGACAGCAAGGGAATTGAACTCCAACTACACCACGGAGTCACCTAGTGCAG,3490 fluorescence intensity (a.u.)
10,CATCAATCACCTCAGCGAACCGTTGCGTGAATTTCTCAAGCGGAGTCACCTAGTGCAG,27600 fluorescence intensity (a.u.)
11,ATTTCATTAATTTTAATCTAGGGCTCTGGACAACTGCTACCGGAGTCACCTAGTGCAG,13700 fluorescence intensity (a.u.)
12,ATAATAAATTTTATCTGCGTTGTACGATATCGATTATTATCGGAGTCACCTAGTGCAG,5550 fluorescence intensity (a.u.)
13,GCCGTTGATTTGCAATCAAACGGCCCAGCAACTCGATTAGCGGAGTCACCTAGTGCAG,28800 fluorescence intensity (a.u.)
14,AATTAATTACATAAAGATTTAGCGCACAAGAGTGAAGTTGCGGAGTCACCTAGTGCAG,26500 fluorescence intensity (a.u.)
15,ATATTTGATCTGACAGTGTAAATTTATCTGATTTGCCTCCCGGAGTCACCTAGTGCAG,11000 fluorescence intensity (a.u.)
16,ATTAATGATGATATGAGGCAAAGTGCTGCAAAACGGTATGCGGAGTCACCTAGTGCAG,8710 fluorescence intensity (a.u.)
17,AAGACTAGATTGCCCCTCAGACCAAATGCTTCAAACATGACGGAGTCACCTAGTGCAG,5710 fluorescence intensity (a.u.)
18,ACTAATGGAACGTTTACCTCGCGATAAACGTATCCAAAATCGGAGTCACCTAGTGCAG,4020 fluorescence intensity (a.u.)
19,GCTGCAAGATTGGACAGTCAATGAGAGCTTTCTTTTAGGACGGAGTCACCTAGTGCAG,11000 fluorescence intensity (a.u.)
20,TGAAATTGAGTATATACCCAATTCAAATGAGTATGAAATTCGGAGTCACCTAGTGCAG,6360 fluorescence intensity (a.u.)
21,TCTCTTAATTGATGTACATATTTGTTATTAACATGTGGACCGGAGTCACCTAGTGCAG,34000 fluorescence intensity (a.u.)

row,Sequence,binding signal
1,AGTCGTTTTAATTTTGATTAAAGTAAAACTGTTTTAAATTCGGAGTCACCTAGTGCAG,6070 fluorescence intensity (a.u.)
2,ATATATATATATATATATATATAGAGAGAGAGAGAGAGAGCGGAGTCACCTAGTGCAG,17100 fluorescence intensity (a.u.)
3,TTAATTGAAATGCCACCTAAGCACCACGTCAGCACACAGACGGAGTCACCTAGTGCAG,27700 fluorescence intensity (a.u.)
4,ATTTAATCAATTATTGAGTTAGGATTATATTGAGTTTCTACGGAGTCACCTAGTGCAG,34900 fluorescence intensity (a.u.)
5,AACTTTGTAATTATATACAGAGATGGGAAACAAACAAATACGGAGTCACCTAGTGCAG,4870 fluorescence intensity (a.u.)
6,CTTCATACAAGATTGGTACTTCTAAGAAACTCTATATTTGCGGAGTCACCTAGTGCAG,4480 fluorescence intensity (a.u.)
7,AGCAATCCTAGCAAATTAGCAATAGCGATACCGATAGCTCCGGAGTCACCTAGTGCAG,3400 fluorescence intensity (a.u.)
8,TATAATACTTAATTAATCATGCGCTAATAAATCATCTTGTCGGAGTCACCTAGTGCAG,19300 fluorescence intensity (a.u.)
9,AACGTTCAGTGATTGAGCAGTAACTTAAAAGACAATGAACCGGAGTCACCTAGTGCAG,9390 fluorescence intensity (a.u.)
10,ATCTATCCAATCAAGAAAACTCTGTATATGTAGTTCGGCTCGGAGTCACCTAGTGCAG,16900 fluorescence intensity (a.u.)
11,AATCAATTCCCCACCTGTCGTCATTTATCCATCATCACATCGGAGTCACCTAGTGCAG,3930 fluorescence intensity (a.u.)
12,GGATGGGATTATGATTGAGAAATAAATGAAAGATTAAGATCGGAGTCACCTAGTGCAG,31900 fluorescence intensity (a.u.)
13,CATTGATGTATAGACTGTTGGTCATGTATGTACCTCCTGACGGAGTCACCTAGTGCAG,14100 fluorescence intensity (a.u.)
14,CCCAGCTGATTTCCCGTTTAGTCGTACACCGGTCGAACAACGGAGTCACCTAGTGCAG,6020 fluorescence intensity (a.u.)
15,AGTATAAACTTTTCCTAAATTTTATCTCCTGTTTCGGTATCGGAGTCACCTAGTGCAG,3240 fluorescence intensity (a.u.)
16,GAAAGTTAATTACAATGACTGAAGGTGTGTACTCACTTGGCGGAGTCACCTAGTGCAG,41400 fluorescence intensity (a.u.)
17,AGATCTAACTCATAAAATTAAATTTAATAGTTTAAGCCCTCGGAGTCACCTAGTGCAG,4270 fluorescence intensity (a.u.)
18,ATCTTAATTTACCTTTCACTGCATCTAATATGTCACTTTGCGGAGTCACCTAGTGCAG,20700 fluorescence intensity (a.u.)
19,TAGCAATTAATAATAAACAACTACAAACTTGCACACACTGCGGAGTCACCTAGTGCAG,9390 fluorescence intensity (a.u.)
20,GACAATAATTAATTTCCAACACCAAAGCCGCTTCTTCCCTCGGAGTCACCTAGTGCAG,23000 fluorescence intensity (a.u.)
21,GTAAAGACTGATGGAAAGAGAGCTAGCTAGTAGTAAATCACGGAGTCACCTAGTGCAG,3290 fluorescence intensity (a.u.)
